{
  "source": "PubChem BioAssay AID686971",
  "about": "(National Center for Advancing Translational Sciences (NCATS), 2013)",
  "note": "Hit rate of the full screen: of about 360,000 compounds, about 7,500 (2.1%) were called active. The inconclusive results got no clear call from the source; some entries with a clear call stand among them for comparison. The call rests on the fitted dose curve; in most records, active means well fitted cell-killing curve with a large enough effect; inconclusive means small, poorly fitted or top-dose-only effect, or effect the other way, or another doubt; inactive means no such curve, though single readings can be large or run the other way. No potency is given beside an inconclusive call; the fits are too rough. Potency means the concentration at half of the fitted maximal effect; tags describe the fitted curve by direction and shape.",
  "data": [
    {"test": "qHTS for induction of synthetic lethality in tumor cells producing 2HG: qHTS for the HT-1080-IDH1KD cell line;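 on activity, negative = toxicity: 0% = DMSO wells and -100% = cell-free medium wells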", "conditions": "HT-1080 IDH1 knockdown viability, ATP luminescence, 48 h; activity, negative = toxicity: at 46.1 µM (top of the series) unless noted", "method_in_brief": "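Viability of IDH1-knockdown HT-1080 fibrosarcoma cells was assessed by CellTiter-Glo after 48 h at 37 °C with titrated compound; concentration-effect curves were classified by fit quality and response size.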", "values": [
      {"smiles": "O=C(NC(c1cccnc1)c1ccc2c(c1)OCO2)C1CCN(CCOc2ccc(Cl)cc2Cl)CC1", "note": "(configuration not stated)", "Potency": "active: 18.4 µM"},
      {"smiles": "COc1ccc(NC(=O)c2sc(=O)n(Cc3cccc(C(F)(F)F)c3)c2C)cc1OC", "activity, negative = toxicity": "inconclusive: -18.5% [cytotoxic]"},
      {"smiles": "COc1ccc(-c2nc3ccccc3[nH]2)cc1", "Potency": "active: 11.2 µM"},
      {"smiles": "CC(C)(C)CC(C)(C)NC(=S)NC1CCN(Cc2ccccc2)CC1", "activity, negative = toxicity": "inactive: -0.277%"},
      {"smiles": "COc1cc(CN2CCCC(CO)(Cc3ccccc3C)C2)cc2c1OCO2", "note": "(configuration not stated)", "Potency": "inconclusive [cytotoxic, single point]"},
      {"smiles": "CN(C)CCCN(C(=O)COc1ccc(Cl)cc1)c1nc2cc3c(cc2s1)OCO3", "Potency": "inconclusive [cytotoxic, single point]"},
      {"smiles": "COc1cc2nc(N3CCCN(C)CC3)nc(NC3CCN(Cc4ccccc4)CC3)c2cc1OC", "Potency": "active: 7.08 µM"},
      {"smiles": "CCCNC(=O)C1(C)CCN(CCOc2ccc(Cl)cc2)C1", "note": "(configuration not stated)", "activity, negative = toxicity": "inactive: -1.31%"},
      {"smiles": "COc1ccc(Nc2nc(-c3ccccc3O)nc3ccccc23)cc1", "Potency": "inconclusive [cytotoxic, single point]"},
      {"smiles": "CC(Oc1ccc(Br)cc1)C(=O)Nc1nc(-c2ccccn2)cs1", "note": "(configuration not stated)", "Potency": "inconclusive [cytotoxic, full curve]"},
      {"smiles": "Cc1ccc(S(=O)(=O)NCc2ccc(C(=O)NCCCN3CCC(Cc4ccccc4)CC3)cc2)cc1", "Potency": "inconclusive [cytotoxic, partial curve, poor fit]"},
      {"smiles": "Brc1ccc2c(c1)C(c1cccnc1)=NNC(c1cccs1)=N2", "Potency": "inconclusive [cytotoxic, single point]"},
      {"smiles": "O=C(C1CCN(S(=O)(=O)c2cc(Cl)ccc2Cl)CC1)N1CCOCC1", "activity, negative = toxicity": "inactive: -9.5%"},
      {"smiles": "Cc1ccc(OCC(=O)N2CCOCC2)cc1C", "activity, negative = toxicity": "inactive: -3.85%"},
      {"smiles": "Oc1cccc(/C=N/N(Cc2ccccc2)c2ccccc2)c1", "Potency": "active: 18.4 µM"},
      {"smiles": "CC(C)SC1=NC(C)(C)C=C(/C=C/c2ccc(Cl)cc2Cl)N1", "Potency": "inconclusive [cytotoxic, single point]"},
      {"smiles": "CC(=O)c1ccccc1OC(=O)COc1ccc([N+](=O)[O-])cc1", "activity, negative = toxicity": "inactive: -0.23%"},
      {"smiles": "CC12CCC(=O)N1C(C(=O)N1CCN(c3ccc([N+](=O)[O-])cc3)CC1)CS2", "note": "(configuration not stated)", "activity, negative = toxicity": "inconclusive: 21.4%"},
      {"smiles": "CCOC(=O)C(C)Oc1cccc2c(=O)n(CC(=O)NCc3ccc4c(c3)OCO4)ccc12", "note": "(configuration not stated)", "Potency": "inconclusive [cytotoxic, full curve]"},
      {"smiles": "COc1cccc(S(=O)(=O)Nc2ccc3sc(C)nc3c2)c1", "activity, negative = toxicity": "inactive: -11.8%"},
      {"smiles": "CC(C)SC1=NC(C)(C)C=C(/C=C/c2c(Cl)cccc2Cl)N1", "Potency": "active: 20.6 µM"},
      {"smiles": "CN(C)c1ccc(C(=O)N/N=C/c2cc(Br)cc(Br)c2O)cc1", "Potency": "inconclusive [cytotoxic, full curve]"},
      {"smiles": "COC(=O)[C@]12CCCCC=C1N(Cc1ccc(Cl)cc1Cl)C(=O)[C@H](CC(=O)N1CCCC1)C2", "Potency": "inconclusive [cytotoxic, single point]"},
      {"smiles": "Cc1ccc2nc(-c3ccccn3)c(N)n2c1", "Potency": "inconclusive [cytotoxic, single point]"},
      {"smiles": "CCC(CC)NC(=O)Cc1ccccc1[N+](=O)[O-]", "activity, negative = toxicity": "inactive: 2.93%"},
      {"smiles": "Cc1cc(OCC[N+]2(C)CCCCC2)nc2ccccc12", "activity, negative = toxicity": "inactive: 6.23%"},
      {"smiles": "S=C(NCc1ccc2c(c1)OCO2)Nc1ccc(-c2nc3ccccc3[nH]2)cc1", "Potency": "inconclusive [cytotoxic, single point]"},
      {"smiles": "COc1ccc(-c2cc(C(F)(F)F)nc(S(C)(=O)=O)n2)cc1OC", "Potency": "inconclusive [cytotoxic, single point]"},
      {"smiles": "COc1ccc([C@H]2CC(=O)C=C(c3cccc4c3Oc3ccccc3S4)C2)cc1", "Potency": "inconclusive [cytotoxic, single point]"},
      {"smiles": "COc1ccccc1CNC(=O)CCNS(=O)(=O)/C=C/c1ccc(C)cc1", "activity, negative = toxicity": "inactive: 3.21%"},
      {"smiles": "O=C(NC(=S)Nc1ccc(N2CCCCC2)cc1)c1ccc2c(c1)OCCO2", "activity, negative = toxicity": "inconclusive: -15.3% [cytotoxic]"},
      {"smiles": "COc1ccc(/C=N/NC(=O)c2cccnc2)c2ccccc12", "activity, negative = toxicity": "inactive: -1.73%"},
      {"smiles": "Cc1[nH]c2ccccc2c1C(=O)C(=O)NCc1ccncc1", "activity, negative = toxicity": "inactive: 21.1%"},
      {"smiles": "CCCCOc1ccc(OCCNC(=O)C2CCCN2C(=O)Nc2ccccc2)cc1", "note": "(configuration not stated)", "activity, negative = toxicity": "inactive: 1.04%"},
      {"smiles": "CCN(CC)c1ccc(C(=O)Nc2cccc(F)c2)cc1", "Potency": "inconclusive [cytotoxic, single point]"},
      {"smiles": "COc1cccc(CNc2ncnc3cc(Cl)ccc23)c1", "Potency": "inconclusive [cytotoxic, single point]"},
      {"smiles": "COc1ccc(NC(=O)COC(=O)c2cc(SC)ccc2Cl)c(OC)c1", "Potency": "inconclusive [cytotoxic, partial curve]"},
      {"smiles": "CCOc1ccc(N(CC(=O)Nc2nccs2)S(=O)(=O)c2c(C)[nH]c(=O)[nH]c2=O)cc1", "activity, negative = toxicity": "inactive: 2.34%"},
      {"smiles": "CCn1c(=S)sc2c(=O)n(CC(=O)Nc3cccc(Cl)c3)c(C)nc21", "Potency": "inconclusive [cytotoxic, single point]"},
      {"smiles": "NC(Cc1ccc(F)cc1)c1csc(Nc2nncc3ccccc23)n1", "note": "(configuration not stated)", "Potency": "active: 25.9 µM"},
      {"smiles": "CCOc1ccc(-c2nnn(CC(=O)c3ccc4c(c3)OCCO4)n2)cc1OCC", "Potency": "inconclusive [cytotoxic, single point]"},
      {"smiles": "CCOc1cc(/C=C2/SC(=S)NC2=O)ccc1OC(=O)c1ccco1", "Potency": "inconclusive [cytotoxic, partial curve]"},
      {"smiles": "CC1(C(=O)NC2CCCCCC2)CCN1C(=O)Cc1ccc(-c2ccccc2)cc1", "note": "(configuration not stated)", "Potency": "inconclusive [cytotoxic, single point]"},
      {"smiles": "N/C(=N\\c1nc2ccccc2o1)NC(=O)c1ccccc1NC(=O)c1ccccc1", "Potency": "inconclusive [cytotoxic, single point]"},
      {"smiles": "Cn1c(SCc2ccccc2)nc(C(F)(F)F)cc1=O", "Potency": "inconclusive [cytotoxic, single point]"},
      {"smiles": "CC(C)C[C@H]1CNC(=S)N1C[C@H]1CCCN1C[C@H](Cc1ccc(O)cc1)N1C[C@H](Cc2ccc(O)cc2)N(CCc2ccccc2)C1=S", "Potency": "active: 20.6 µM"},
      {"smiles": "C/C(Nc1cccc(F)c1)=C(/C#N)C(N)=O", "Potency": "inconclusive [rising, single point]"}
    ]}
  ]
}
